The supplement of paper PMC10126150
Sequences with one replicate were seen in a single cluster, so their values are uncertain.

tested on: ATP; test: switch fluorescence ratio, 500 uM ATP over buffer (Cy3 cluster intensity, sum of 5 cycles each) (fold (ratio)); higher = stronger signal-on switching upon ATP binding; sequences stand for … in TCGTCGGCAGCGTCAGATGTGTATAAGAGACAGTTTTTTTTTTTTTTTTTTTTTTTTT…TC; conditions: aptamer strand: ATP DNA aptamer (quencher-CACCTGGGGGAGTATTGCGGAGGAAGG + anchor), 100 nM annealed; ATP concentration: 500 uM; one replicate
Summary of the method: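 Clusters carrying Cy3-labelled switching strands on a modified Illumina MiSeq flow-cell were annealed to 100 nM quencher-labelled ATP aptamer and imaged in selection buffer. They were imaged again after 15 min with 500 uM ATP at 22 °C, over five buffer/ATP cycles with NaOH stripping and re-annealing in between. For each cluster, the fluorescence ratio is the summed Cy3 intensity of the target cycles divided by that of the buffer cycles, averaged per switch-domain sequence. Clusters outside 100-1000 RFU were left out.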
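Further: ATP exposure 15 min at 22 °C before imaging.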

| Sequence | switch fluorescence ratio |
| --- | --- |
| TTCCTATGGG | 0.99 |
| TTCCTCAGGC | 1.11 |
| TTCCTCTCGT | 1.09 |
| TTCCTGAGTG | 1.06 |
| TTCCTGCAAT | 4.3 |
| TTCCTTGATT | 1.03 |
| TTCGAAGGCG | 1.08 |
| TTCGAAGTAG | 1.05 |
| TTCGAATAGA | 1.02 |
| TTCGAATTTT | 0.979 |
| TTCGACGCGG | 1.13 |
| TTCGACTGAG | 1.03 |
| TTCGACTTTG | 0.968 |
| TTCGAGATTA | 0.995 |
| TTCGAGGAGC | 0.966 |
| TTCGATCGAC | 1.04 |
| TTCGATGGGA | 0.989 |
| TTCGATGTTC | 0.977 |
| TTCGCACCGC | 1.09 |
| TTCGCCATGA | 1.06 |
| TTCGCGGGCG | 1.03 |
| TTCGCTGCCA | 1.02 |

| Sequence | switch fluorescence ratio |
| --- | --- |
| TTCGCTTTCC | 1.36 |
| TTCGGAATTC | 1.76 |
| TTCGGACGTG | 0.987 |
| TTCGGAGACG | 0.95 |
| TTCGGAGAT | 1.07 |
| TTCGGAGCGC | 0.999 |
| TTCGGAGGTG | 1.1 |
| TTCGGATGCT | 0.983 |
| TTCGGATTAC | 2.71 |
| TTCGGCCCAC | 0.996 |
| TTCGGCCTTA | 0.987 |
| TTCGGGCT | 1.03 |
| TTCGGGGTT | 1.02 |
| TTCGGTAAGA | 1.1 |
| TTCGGTACCA | 1.09 |
| TTCGGTGCGG | 0.982 |
| TTCGGTGTGA | 1.03 |
| TTCGTAGTA | 1.02 |
| TTCGTCCCGG | 1.09 |
| TTCGTCTTT | 1.05 |
| TTCGTGGAGC | 0.978 |
| TTCGTTGACC | 0.999 |

| Sequence | switch fluorescence ratio |
| --- | --- |
| TTCGTTGATT | 0.964 |
| TTCGTTTGTA | 0.972 |
| TTCTAACGGT | 0.985 |
| TTCTAACTAA | 1.12 |
| TTCTAAGGCG | 1.02 |
| TTCTACGTGT | 0.971 |
| TTCTAGGACC | 1.03 |
| TTCTCCTGCA | 2.83 |
| TTCTCGGATC | 1.01 |
| TTCTCGGGTC | 0.946 |
| TTCTCGGTTC | 1.05 |
| TTCTCGTTTT | 0.988 |
| TTCTCTGATA | 1.02 |
| TTCTCTTCGC | 1.03 |
| TTCTGACTGA | 1.03 |
| TTCTGAGGAA | 1.02 |
| TTCTGATTAA | 1.01 |
| TTCTGCAGG | 1.11 |
| TTCTGCGCAT | 2.61 |
| TTCTGCGCGG | 1.07 |
| TTCTGGAGC | 0.999 |
| TTCTGGCCAC | 0.991 |

| Sequence | switch fluorescence ratio |
| --- | --- |
| TTCTGTACCG | 0.929 |
| TTCTGTTTGT | 1.01 |
| TTCTTAAAT | 1.03 |
| TTCTTAATAT | 0.986 |
| TTCTTAATTG | 0.985 |
| TTCTTACTCA | 1.12 |
| TTCTTACTCG | 0.992 |
| TTCTTAGTTA | 0.984 |
| TTCTTATAGC | 1.04 |
| TTCTTATCAA | 1.02 |
| TTCTTATGCT | 0.984 |
| TTCTTGAAGT | 0.973 |
| TTCTTGGTGG | 1.03 |
| TTCTTGGTTC | 1.06 |
| TTCTTTCATA | 1 |
| TTGAAAACT | 1.07 |
| TTGAAAAGGT | 0.971 |
| TTGAAAGAGT | 0.996 |
| TTGAAATGGC | 0.982 |
